Experimental data from the supplement of paper PMC3334620.
Whole data set: some 33,000 sequences, median “E-score (-0.5 to 0.5)” near -0.056, cut for the highest 2% near 0.38. The list shows a part of the results.

Molecular target: Stb4 (UniProt P50104)
Test: PBM E-score (8-mer binding enrichment) (E-score (-0.5 to 0.5)); higher = stronger / more preferred TF binding; most listed sequences are background and not binding sites
Settings: protein concentration: 200 nM; construct: GST-DNA-binding domain
Procedure, shortened: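 For each ungapped eight-base word taken together with its reverse complement, the Universal PBM Analysis Suite assigned an E-score. Binding data came from GST-tagged yeast transcription factors, applied at about 100-200 nM, on universal all-10-mer Agilent arrays made double-stranded by primer extension. Fluorescent anti-GST marked bound protein, and scans were normalised with masliner.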

Sequence	PBM E-score
CCCATCGG	0.311
AGGCTCTA	-0.08
ATCGCTCC	0.0495
TCAAGAGA	-0.0622
ACGTAAGT	-0.0814
AAGCCTTG	-0.0832
CCGGAGCC	0.303
GCCTGGCC	-0.00689
ATACGATA	-0.0826
ACCTTGAA	-0.318
CCTATCCA	-0.196
GACTATGC	-0.161
ACTATGAC	-0.104
ATTTGTCG	0.0564
ACGAACTG	-0.0996
AAATTACG	-0.0914
AGGGATGC	-0.326
CAAGAGGG	-0.282
AGGAGTTA	-0.0113
TACGGGAA	0.288
CGGGAGAA	0.265
ACCACCCG	0.242
AACGTATG	-0.369
CCTCATGA	-0.109
TCACATCA	-0.0958

Sequence	PBM E-score
ACCTAGTC	-0.171
AGGGCTAT	-0.285
ATCCGTTG	0.317
TACACGAA	0.0942
GACCACCC	-0.0404
ATGGATGA	-0.161
ACACGCTG	-0.0897
CGAAACCC	0.238
ATAAGCTC	0.0278
ACTTCGCT	-0.125
CATAGTTA	-0.0819
CTGTCGGC	0.275
AGCGTGGC	-0.147
AATCTATG	0.00551
GATTTGAC	-0.0984
CCAGCTGC	0.00982
GAGGACAA	-0.18
CCCTGACA	-0.217
CCCCGCGA	0.16
ATAGCCCA	-0.00408
TACAACGA	-0.0749
CAATTTGA	-0.046
CGGAGGTC	0.172
AATATACT	-0.0789
CCTTACAA	-0.0622

Sequence	PBM E-score
AGTAGTAG	-0.107
ACTTGCCC	0.0813
GGGACCAA	-0.0727
GCTCAGCC	-0.0564
CAAACTAA	0.108
AAGGATTC	-0.138
TATGGTGA	-0.138
CGATCCCG	0.342
GAGGGGCC	0.0391
CTCCGCCA	0.0378
GACCATAC	0.15
GGCGACCC	0.114
ACGTTGGC	-0.226
CGTATTGC	0.115
AGCAGAAC	-0.166
CGGGAATA	0.417
GGGGTTAC	-0.0116
CTTGGACC	-0.163
ACCTTCCC	0.0875
CTAGCACC	0.0619
AAGTTCAG	-0.127
AGCACTTG	-0.205
GACTGGTA	0.0628
AAACGCAG	-0.15
AGTTAAGA	-0.0913

Sequence	PBM E-score
CGCTGACC	-0.0105
ACAAGGAA	0.0488
CTACTATA	0.0219
GCGCGCAA	0.0215
ACAATCCC	0.266
AAGTTGGT	0.0189
CAAGTGTA	-0.205
CGGGCGAC	0.141
AGTCGTGA	-0.255
CTATGTGC	-0.233
ACTAGAGA	-0.131
CCGGTCTC	0.209
AGCATGCG	-0.111
AGTACTCA	-0.345
GGGGGTTA	-0.214
CCGGGATA	0.292
CGCCGTCC	0.0221
GTACCGGA	0.283
AGTCCATG	-0.228
ACCTGAAC	-0.00703
GCTGATCC	0.144
AGAATAAC	-0.166
AAAATATC	0.0374
CGGTACAA	0.323
AAGATGGG	-0.125

Sequence	PBM E-score
CGTTCTAA	0.03
TCACCCAA	-0.112
GCCGTCGA	0.00974
ATGGAGGG	-0.299
ATTGCCGC	0.121
GGCTCCCA	-0.0654
CAACCACC	0.0572
AGGCCTTG	-0.263
AAACAACG	-0.0166
GAGGTCGA	-0.206
GTGGATAA	-0.091
AGAAGCCT	-0.227
CGGCCCGC	0.326
CGGTAGAG	0.112
AGGCTGGC	-0.234
GGTAGAAA	0.166
GCATCTCC	0.0843
CGCCAACC	0.0947
ACACTCTC	-0.0168
AGCGAAAC	0.0931
CCGCCACA	0.0585
CTTTTTCC	0.18
AGATATAT	-0.028
AACAACCT	-0.183
AGGGTATC	-0.0302

Sequence	PBM E-score
AACACGTC	0.0464
AGTACGTC	-0.111
AATACTTG	-0.123
ATAGATCG	-0.0196
CACGCAGC	-0.028
CTCTAAAA	-0.00728
CAAGTTAG	0.197
GCAGCTAC	-0.149
CCCATGCG	-0.211
TATATCAA	0.0312
CGCCTAAA	-0.16
AGGTCAGC	-0.0261
AAGATTTA	0.0925
ATTGATCA	-0.217
AGTGACCC	-0.0101
CGCGATTA	-0.0152
CCCAAACA	-0.274
AATATCGC	0.0955
GCGTGTAC	-0.134
CCGTTGTA	0.174
CCACGCGC	-0.14
GAGTTTCA	-0.112
GATTTCGC	0.0447
CCGTATCC	0.256
CATGTGCC	0.0287

Sequence	PBM E-score
GTCCCGTA	0.186
ATCCACGG	0.109
CACACTAC	-0.108
AATTTAAC	0.0749
ATAAACAA	0.00747
AGTTTGTG	0.0542
CTCATGAA	-0.0976
CTCCTTCA	-0.271
CAGGGGCA	-0.151
AGGGATAT	-0.131
GTCAAACA	-0.182
CCCATGGC	-0.0456
AATTTGCA	0.0137
GCGTAACA	-0.0502
CGAGCGAG	0.0797
GTAAGGAA	-0.191
CGTAATAC	0.0192
CCGCTGGA	0.0487
ACCCCGTG	0.0375
ATTATTCG	0.21
GTAGCATA	-0.0426
TTAAAAAA	0.00045
